# The shares of active, inactive and inconclusive entries below differ from those in the screen. Potencies of inconclusive entries are left out as doubtful fits. Active and inactive are the calls of the source. The call rests on the fitted dose curve; in most records, active means well fitted inhibition curve with a large enough effect; inconclusive means small, poorly fitted or top-dose-only effect; inactive means no such curve, though single readings can be large or run the other way.
# Test: Primary qHTS for small molecule stabilizers of the endoplasmic reticulum resident proteome: Secreted ER Calcium Modulated Protein (SERCaMP) assay (AID 1508630)
# Conditions: SH-SY5Y GLuc-SERCaMP (Gaussia luciferase released on ER calcium loss) secretion, thapsigargin, luminescence; series mostly up to 38.4 µM
# How it was run: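 The SH-SY5Y reporter protocol was run at 3 concentrations up to 38.3 uM (primary) or 11 concentrations (follow-up): 16 h compound, 100 nM thapsigargin for 4 h, then extracellular luciferase luminescence.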
# Potency means the concentration at half of the fitted maximal effect; tags describe the fitted curve by direction and shape.
row,Structure (SMILES),Potency
1,C#CC1(O)CC[C@H]2[C@@H]3CCC4=CCCC[C@@H]4[C@H]3CC[C@@]21C (stereo partly specified),inactive
2,C=CC(N)CCC(=O)O (stereo unspecified),"inconclusive [inhibitor, partial curve]"
3,O=c1[nH]c2ccccc2n1CCCN1CCN(C(c2ccccc2)c2ccccc2)CC1,"inconclusive [inhibitor, single point]"
4,O=C(CCN1CCN2CCCC2C1)N1c2ccccc2Sc2ccc(Cl)cc21 (stereo unspecified),"inconclusive [inhibitor, single point]"
5,CCCCCCCCCCCCOCCOCCOCCOCCOCCOCCOCCOCCOCCO,"inconclusive [inhibitor, single point]"
6,Cc1cccc(/C=C/c2ccccc2)n1,inactive
7,Nc1ccc(S(=O)(=O)c2ccc(N)cc2)cc1,"inconclusive [inhibitor, full curve, poor fit]"
8,COC(=O)C1=C(C)NC(C)=C(C(=O)OCCN2CCN(C(c3ccccc3)c3ccccc3)CC2)C1c1cccc([N+](=O)[O-])c1 (stereo unspecified),"inconclusive [inhibitor, partial curve, poor fit]"
9,Cc1cc2c(s1)Nc1ccccc1N=C2N1CCN(C)CC1,"inconclusive [inhibitor, partial curve, poor fit]"
10,N=C(N)N,"inconclusive [inhibitor, partial curve, poor fit]"
11,[O-][n+]1ccccc1SSc1cccc[n+]1[O-],"inconclusive [inhibitor, full curve, poor fit]"

# Reference: PubChem BioAssay (NCATS)
